# This list was built around the results that the source calls inconclusive (neither active nor inactive); the mix of calls is not that of the screen. For some assays here: No potency is given beside an inconclusive call; the fits are too rough. Active and inactive are the calls of the source. Unless noted, calls come from the whole dose curve; as a rule, active = well fitted curve in the direction sought with a large enough effect in the repeat runs; inconclusive = weak or mixed curves; inactive = no such curve, though single readings can be large; an effect the other way counts as inactive or inconclusive.
# Tests used:
# [1] = qHTS assay for small molecule agonists of the p53 signaling pathway - cell viability (AID 651633; calls by dose curve;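 note: p53RE-bla HCT reporter cells with a stable beta-lactamase p53 reporter; % is set by controls: 0 for no effect and ±100 for the full control effect; nearly all actives have a fitted effect of over 30% in size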)
# Method in brief: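 p53RE-bla cells were treated with compound for 16 hours at 37 C. Cytotoxicity was then measured as CellTiter-Glo luminescence after 30 min at room temperature.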
# [2] = qHTS assay for small molecule disruptors of the mitochondrial membrane potential (AID 720635); settings: HepG2 mitochondrial membrane potential, Mito-MPS dye ratio; ratio activity, negative = MMP loss: at 83.2 µM (top of the series) unless noted; note: % is set by controls: 0 for no effect and ±100 for the full control effect
# Method in brief: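 HepG2 cells exposed to compound 1 hr at 37C, then Mito-MPS dye 30 min. Ratio read of aggregate (540/590 nm) versus monomer (490/535 nm) fluorescence.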
# [3] = qHTS assay for identifying genotoxic compounds that show differential cytotoxicity against isogenic chicken DT40 cell lines with known DNA damage response pathways - Rev3 mutant cell line (AID 743014); settings: chicken DT40 Rev3-/- viability, CellTiter-Glo, 40 h; activity, negative = cytotoxicity: at 68.4 µM (top of the series) unless noted; note: potency is the fitted concentration of half-maximal effect; nearly all actives have a fitted effect of over 55% in size
# [4] = qHTS assay for small molecule agonists of the antioxidant response element (ARE) signaling pathway (AID 743202; active = well fitted activation curve with a large enough effect in the signal ratio in the repeat runs, not every such curve was filed as active; inconclusive = weak or mixed curves, or effect the other way; inactive = no such curve, though single readings can be large or run the other way; the % refers to the signal ratio; note: % is set by controls: 0 for no effect and ±100 for the full control effect); settings: HepG2 ARE-bla reporter, beta-lactamase FRET, 16 h; activation: at 73.3 µM (top of the series) unless noted
# Method in brief: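 HepG2 ARE-bla cells; 16 h treatment at 37 C; FRET-based beta-lactamase fluorescence read after 2 h substrate incubation at room temperature.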
# [5] = qHTS assay to identify small molecule antagonists of the peroxisome proliferator-activated receptor delta (PPARd) signaling pathway - cell viability counter screen (AID 743213); settings: PPARd-bla HEK293H viability, CellTiter-Glo luminescence, 17 h; viability change, negative = cytotoxic: at 62 µM (top of the series) unless noted; note: potency is the fitted concentration of half-maximal effect; nearly all actives have a fitted effect of over 50% in size
# Method in brief: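 HEK293H cells with the PPARd UAS-bla reporter, co-treated 17 h at 37 C with compounds and L165041 (300 nM final), were lysed with CellTiter-Glo. Luminescence indicated viable cell content.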
# [6] = target: Bile acid receptor (Homo sapiens) (UniProt Q96RI1); assay: qHTS assay to identify small molecule antagonists of the farnesoid-X-receptor (FXR) signaling pathway (AID 743217; active = well fitted inhibition curve with a large enough effect in the signal ratio in the repeat runs, not every such curve was filed as active; inconclusive = weak or mixed curves, or effect the other way; inactive = no such curve, though single readings can be large or run the other way; the % refers to the signal ratio; note: % is set by controls: 0 for no effect and ±100 for the full control effect); settings: HEK293T FXR-UAS-bla, beta-lactamase ratio, CDCA-stimulated, 16 h; activity change, negative = inhibition: at 62.6 µM (top of the series) unless noted
# Method in brief: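 Antagonist mode: chenodeoxycholic acid at 50 uM final stimulates a UAS-driven beta-lactamase reporter in HEK 293T FXR-bla cells during 16 h, 37C compound exposure. Read-out is FRET substrate fluorescence after 2 h at room temperature.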
# [7] = qHTS assay to identify small molecule antagonists of the farnesoid-X-receptor (FXR) signaling pathway - cell viability counter screen (AID 743221; active = well fitted cell-killing curve with a large enough effect in the repeat runs, not every such curve was filed as active; inconclusive = weak or mixed curves, or effect the other way; inactive = no such curve, though single readings can be large or run the other way; note: % is set by controls: 0 for no effect and ±100 for the full control effect; nearly all actives have a fitted effect of over 50% in size); settings: FXR-bla HEK293T viability, CellTiter-Glo luminescence, 16 h; activity change, negative = cytotoxicity: at 62.6 µM (top of the series) unless noted
# Method in brief: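 Cytotoxicity is taken from ATP luminescence (CellTiter-Glo, 30 min, room temperature) in FXR-bla HEK 293T cells previously incubated 16 h at 37 C with compound and chenodeoxycholic acid at 50 uM final.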
# [8] = target: Progesterone receptor (Homo sapiens) (UniProt P06401); assay: qHTS assay to identify small molecule agonists of the progesterone receptor (PR) signaling pathway (AID 1346784; calls by dose curve; note: % is set by controls: 0 for no effect and ±100 for the full control effect; nearly all actives have a fitted effect of over 30% in size); settings: PR-UAS-bla HEK293T, beta-lactamase FRET ratio, 16 h; activation: at 92.4 µM (top of the series) unless noted
# Method in brief: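 Fluorescence from LiveBLAzer B/G FRET substrate cleavage (2 hr, RT) reported PR activation in PR-UAS-bla HEK 293T cells treated 16 hr at 37C/5% CO2 with compounds; medium contained 2% charcoal-stripped FBS.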
# [9] = Caspase-3/7 induction in CHO-K1 cells by small molecules, qHTS assay (AID 1346980); note: % is set by controls: 0 for no effect and ±100 for the full control effect; nearly all actives have a fitted effect of over 15% in size
# Method in brief: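 Wild-type CHO-K1 cells exposed to compounds for 17hr at 37 C, 5% CO2. Caspase-3/7 activity then measured by Caspase-Glo 3/7 luminescence after 30min at room temperature.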
# [10] = target: Cytochrome P450 2D6 (Homo sapiens) (UniProt P10635); assay: Cytochrome P450 Family 2 Subfamily D Member 6 (CYP2D6) small molecule antagonists: luciferase reporter qHTS assay (AID 1671196); note: potency is the fitted concentration of half-maximal effect; nearly all actives have a fitted effect of over 50% in size
# Method in brief: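 CYP2D6 activity was followed as luminescence from its luciferin product after a 1 h NADPH-driven reaction at room temperature. Enzyme-substrate mix and compound were pre-incubated for 10 min, and the signal was read 20 min after adding detection reagent.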
# [11] = target: Cytochrome P450 2C9 (Homo sapiens) (UniProt P11712); assay: Cytochrome P450 Family 2 Subfamily C Member 9 (CYP2C9) small molecule antagonists: luciferase reporter qHTS assay (AID 1671198); note: potency is the fitted concentration of half-maximal effect; nearly all actives have a fitted effect of over 50% in size
# Method in brief: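 P450-Glo proluciferin substrate with CYP2C9 enzyme; 10 min RT preincubation, then NADPH regeneration 1 h at 37C; luciferin detection reagent 20 min RT, luminescence in relative luminescence units.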
# [12] = target: Cytochrome P450 1A2 (Homo sapiens) (UniProt P05177); assay: Cytochrome P450 Family 1 Subfamily A Member 2 (CYP1A2) small molecule antagonists: luciferase reporter qHTS assay (AID 1671199)
# Method in brief: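 Luminescence from luciferin formed by CYP1A2 from a proluciferin substrate, read 20 min after detection reagent. Compound was pre-incubated 10 min with enzyme-substrate, and reaction started with NADPH regeneration solution for 1 h at room temperature; furafylline control.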
# [13] = target: Voltage-gated inwardly rectifying potassium channel KCNH2 (Homo sapiens) (UniProt Q12809); assay: Human Ether-a-go-go-Related Gene (hERG) channel small molecule antagonists: fluorescence cell-based qHTS assay (AID 1671200)
# Method in brief: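 Thallium served as the potassium surrogate; its influx into dye-loaded U2OS cells carrying the channel was measured by fluorescence over 2 min.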
# [14] = qHTS assay to identify small molecule antagonists of the thyroid receptor (TR) signaling pathway - cell viability counter screen (AID 743064); settings: GH3.TRE-Luc viability, CellTiter-Fluor, 24 h; activity change, negative = cytotoxic: at 70.3 µM (top of the series) unless noted
# Method in brief: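 Viability of T3-stimulated (1 nM final) GH3.TRE-Luc cells is measured by CellTiter-Fluor fluorescence after 23.5 h compound exposure at 37 °C plus 30 min reagent incubation.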
# [15] = target: Peroxisome proliferator-activated receptor gamma (Homo sapiens) (UniProt P37231); assay: qHTS assay to identify small molecule antagonists of the peroxisome proliferator-activated receptor gamma (PPARg) signaling pathway (AID 743191; calls by dose curve; note: % is set by controls: 0 for no effect and ±100 for the full control effect; nearly all actives have a fitted effect of over 30% in size); settings: HEK293H PPARg-UAS-bla, beta-lactamase ratio, antagonist, 17 h; ratio activity, negative = inhibition: at 62.6 µM (top of the series) unless noted
# Method in brief: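 GeneBLAzer PPARg UAS-bla HEK293H cells, 5 h post-plating, exposed to compounds 17 h at 37C. LiveBLAzer B/G FRET substrate added for 1 h at room temperature; beta-lactamase reporter read by fluorescence intensity.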
# [16] = qHTS assay to identify small molecule agonists of the farnesoid-X-receptor (FXR) signaling pathway - cell viability counter screen (AID 743218); settings: FXR-bla HEK293T viability, CellTiter-Glo luminescence, 16 h; viability change, negative = cytotoxic: at 62.6 µM (top of the series) unless noted; note: % is set by controls: 0 for no effect and ±100 for the full control effect; nearly all actives have a fitted effect of over 45% in size
# Method in brief: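 Viability counter screen in the same wells: CellTiter-Glo luminescence, 30 min room-temperature incubation, measured after the beta-lactamase read. Cells were GeneBLAzer FXR-UAS-bla HEK 293T, compound-treated 16 h at 37C.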
# [17] = target: Bile acid receptor (Homo sapiens) (UniProt Q96RI1); assay: qHTS assay to identify small molecule agonists of the farnesoid-X-receptor (FXR) signaling pathway (AID 743220; active = well fitted activation curve with a large enough effect in the signal ratio in the repeat runs, not every such curve was filed as active; inconclusive = weak or mixed curves, or effect the other way; the % refers to the signal ratio; note: % is set by controls: 0 for no effect and ±100 for the full control effect); settings: HEK293T FXR-UAS-bla, beta-lactamase FRET ratio, 16 h; activation: at 62.6 µM (top of the series) unless noted
# Method in brief: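 FXR-UAS-bla HEK 293T cells carrying a UAS-driven beta-lactamase reporter were plated for 5 h at 37C/5% CO2, then exposed to DMSO-dissolved Tox21 10K compounds for 16 h at 37C. A LiveBLAzer B/G FRET substrate was loaded for 2 h at room temperature before fluorescence reading.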
# [18] = qHTS assay to identify small molecule antagonists of the vitamin D receptor (VDR) signaling pathway - cell viability counter screen (AID 743225); settings: VDR-bla HEK293T viability, CellTiter-Glo luminescence, 16 h; viability change, negative = cytotoxic: at 61 µM (top of the series) unless noted
# Method in brief: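 Same-well multiplex: following 16 h treatment of HEK 293T cells carrying a UAS-driven beta-lactamase reporter with compound and agonist (3 nM final), and a 2 h FRET substrate step, CellTiter-Glo was added and luminescence read after 30 min.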
# [19] = qHTS assay to identify small molecule agonists of the estrogen receptor beta (ER-beta) signaling pathway - cell viability counter screen (AID 1259380); note: % is set by controls: 0 for no effect and ±100 for the full control effect; nearly all actives have a fitted effect of over 30% in size
# Method in brief: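 Cell viability counter screen: CellTiter-Glo luminescence (30 min, room temperature) measured in the same wells as the beta-lactamase readout, after 16 hr compound exposure at 37C of ER-beta-bla HEK293T cells in 2% charcoal-stripped FBS medium.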
# Tags give direction and shape of the fitted curve.
# UniProt P05177, sequence (P05177 whole entry, looked up): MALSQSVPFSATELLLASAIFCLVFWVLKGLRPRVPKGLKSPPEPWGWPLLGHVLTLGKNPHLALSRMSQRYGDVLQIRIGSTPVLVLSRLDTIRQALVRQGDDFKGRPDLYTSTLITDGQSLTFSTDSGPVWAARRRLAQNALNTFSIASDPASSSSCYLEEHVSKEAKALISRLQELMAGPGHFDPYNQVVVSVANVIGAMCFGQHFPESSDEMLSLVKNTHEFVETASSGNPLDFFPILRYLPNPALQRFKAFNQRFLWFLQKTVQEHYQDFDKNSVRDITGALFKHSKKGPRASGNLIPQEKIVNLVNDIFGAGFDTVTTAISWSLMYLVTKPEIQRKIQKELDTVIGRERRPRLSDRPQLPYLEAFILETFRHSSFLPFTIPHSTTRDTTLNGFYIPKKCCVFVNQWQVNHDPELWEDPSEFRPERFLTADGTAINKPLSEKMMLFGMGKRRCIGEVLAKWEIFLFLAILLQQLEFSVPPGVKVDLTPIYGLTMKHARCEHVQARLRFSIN
# UniProt P10635, sequence (P10635 whole entry, looked up): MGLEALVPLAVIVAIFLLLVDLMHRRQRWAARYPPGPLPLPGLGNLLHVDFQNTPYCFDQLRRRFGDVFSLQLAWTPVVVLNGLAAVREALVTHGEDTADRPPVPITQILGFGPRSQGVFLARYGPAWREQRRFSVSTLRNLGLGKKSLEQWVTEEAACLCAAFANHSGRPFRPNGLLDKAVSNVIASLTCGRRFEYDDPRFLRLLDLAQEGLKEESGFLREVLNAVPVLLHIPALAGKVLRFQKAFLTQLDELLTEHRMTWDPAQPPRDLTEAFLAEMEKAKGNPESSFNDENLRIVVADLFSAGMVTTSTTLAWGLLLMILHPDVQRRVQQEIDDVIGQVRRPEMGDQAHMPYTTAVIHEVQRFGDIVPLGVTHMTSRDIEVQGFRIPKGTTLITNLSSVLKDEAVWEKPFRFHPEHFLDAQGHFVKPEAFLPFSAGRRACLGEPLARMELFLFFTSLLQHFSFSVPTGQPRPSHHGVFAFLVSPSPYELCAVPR
# UniProt Q96RI1, sequence (Q96RI1 whole entry, looked up): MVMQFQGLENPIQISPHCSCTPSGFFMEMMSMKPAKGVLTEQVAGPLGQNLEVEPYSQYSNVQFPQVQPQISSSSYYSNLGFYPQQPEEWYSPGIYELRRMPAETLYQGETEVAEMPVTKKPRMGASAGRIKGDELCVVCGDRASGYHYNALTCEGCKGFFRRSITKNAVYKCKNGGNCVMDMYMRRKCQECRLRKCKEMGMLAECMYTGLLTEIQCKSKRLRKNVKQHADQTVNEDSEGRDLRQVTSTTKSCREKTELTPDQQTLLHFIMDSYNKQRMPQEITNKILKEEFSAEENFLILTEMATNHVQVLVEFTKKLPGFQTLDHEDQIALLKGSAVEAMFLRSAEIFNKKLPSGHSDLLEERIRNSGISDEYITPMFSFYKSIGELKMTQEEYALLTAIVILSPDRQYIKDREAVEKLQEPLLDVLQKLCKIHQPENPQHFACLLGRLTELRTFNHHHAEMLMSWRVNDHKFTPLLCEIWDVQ
# UniProt P37231, sequence (P37231 whole entry, looked up): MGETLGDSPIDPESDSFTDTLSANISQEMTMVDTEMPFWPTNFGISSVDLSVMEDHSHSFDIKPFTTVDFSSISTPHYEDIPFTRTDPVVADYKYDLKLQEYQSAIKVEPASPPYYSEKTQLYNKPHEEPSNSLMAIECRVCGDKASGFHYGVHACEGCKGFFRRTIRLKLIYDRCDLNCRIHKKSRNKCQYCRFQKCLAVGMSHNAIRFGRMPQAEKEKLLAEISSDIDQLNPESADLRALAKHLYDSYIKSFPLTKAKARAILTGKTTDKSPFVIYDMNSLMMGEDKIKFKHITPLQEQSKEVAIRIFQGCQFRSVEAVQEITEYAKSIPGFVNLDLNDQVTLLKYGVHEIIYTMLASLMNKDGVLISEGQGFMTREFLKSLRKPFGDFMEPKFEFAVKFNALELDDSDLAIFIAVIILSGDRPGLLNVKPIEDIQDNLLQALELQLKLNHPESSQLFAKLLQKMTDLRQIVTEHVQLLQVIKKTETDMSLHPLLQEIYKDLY
# UniProt Q12809, sequence (Q12809 whole entry, looked up): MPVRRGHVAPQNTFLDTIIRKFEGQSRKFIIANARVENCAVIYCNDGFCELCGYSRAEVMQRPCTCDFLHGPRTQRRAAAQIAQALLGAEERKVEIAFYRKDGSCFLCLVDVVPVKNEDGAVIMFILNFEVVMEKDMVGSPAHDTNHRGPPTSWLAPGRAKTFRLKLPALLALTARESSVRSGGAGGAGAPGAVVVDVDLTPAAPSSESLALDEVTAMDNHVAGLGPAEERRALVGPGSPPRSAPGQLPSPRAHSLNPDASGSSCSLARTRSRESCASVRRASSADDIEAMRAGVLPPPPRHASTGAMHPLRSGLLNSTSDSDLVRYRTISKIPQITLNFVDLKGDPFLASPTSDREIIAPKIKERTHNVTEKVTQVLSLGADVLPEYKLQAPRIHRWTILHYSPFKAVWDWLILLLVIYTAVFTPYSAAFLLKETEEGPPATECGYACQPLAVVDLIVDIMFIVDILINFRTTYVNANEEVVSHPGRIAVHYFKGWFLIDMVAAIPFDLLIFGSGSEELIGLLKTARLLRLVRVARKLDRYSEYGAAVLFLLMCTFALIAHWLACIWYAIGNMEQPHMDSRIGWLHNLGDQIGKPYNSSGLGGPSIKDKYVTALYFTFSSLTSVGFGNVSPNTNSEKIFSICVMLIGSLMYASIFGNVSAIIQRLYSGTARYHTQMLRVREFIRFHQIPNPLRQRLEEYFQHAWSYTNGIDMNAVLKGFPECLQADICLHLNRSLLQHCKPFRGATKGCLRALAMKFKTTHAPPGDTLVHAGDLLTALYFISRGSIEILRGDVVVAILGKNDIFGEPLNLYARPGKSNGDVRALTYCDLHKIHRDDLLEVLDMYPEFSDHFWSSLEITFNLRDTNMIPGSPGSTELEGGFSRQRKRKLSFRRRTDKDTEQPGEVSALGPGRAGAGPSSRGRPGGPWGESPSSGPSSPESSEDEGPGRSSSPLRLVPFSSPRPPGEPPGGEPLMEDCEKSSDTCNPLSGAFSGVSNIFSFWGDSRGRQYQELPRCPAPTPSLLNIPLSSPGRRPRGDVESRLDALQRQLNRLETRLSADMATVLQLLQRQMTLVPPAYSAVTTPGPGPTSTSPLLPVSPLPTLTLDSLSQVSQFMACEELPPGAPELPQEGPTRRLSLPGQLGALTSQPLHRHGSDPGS
# UniProt P06401, sequence (P06401 whole entry, looked up): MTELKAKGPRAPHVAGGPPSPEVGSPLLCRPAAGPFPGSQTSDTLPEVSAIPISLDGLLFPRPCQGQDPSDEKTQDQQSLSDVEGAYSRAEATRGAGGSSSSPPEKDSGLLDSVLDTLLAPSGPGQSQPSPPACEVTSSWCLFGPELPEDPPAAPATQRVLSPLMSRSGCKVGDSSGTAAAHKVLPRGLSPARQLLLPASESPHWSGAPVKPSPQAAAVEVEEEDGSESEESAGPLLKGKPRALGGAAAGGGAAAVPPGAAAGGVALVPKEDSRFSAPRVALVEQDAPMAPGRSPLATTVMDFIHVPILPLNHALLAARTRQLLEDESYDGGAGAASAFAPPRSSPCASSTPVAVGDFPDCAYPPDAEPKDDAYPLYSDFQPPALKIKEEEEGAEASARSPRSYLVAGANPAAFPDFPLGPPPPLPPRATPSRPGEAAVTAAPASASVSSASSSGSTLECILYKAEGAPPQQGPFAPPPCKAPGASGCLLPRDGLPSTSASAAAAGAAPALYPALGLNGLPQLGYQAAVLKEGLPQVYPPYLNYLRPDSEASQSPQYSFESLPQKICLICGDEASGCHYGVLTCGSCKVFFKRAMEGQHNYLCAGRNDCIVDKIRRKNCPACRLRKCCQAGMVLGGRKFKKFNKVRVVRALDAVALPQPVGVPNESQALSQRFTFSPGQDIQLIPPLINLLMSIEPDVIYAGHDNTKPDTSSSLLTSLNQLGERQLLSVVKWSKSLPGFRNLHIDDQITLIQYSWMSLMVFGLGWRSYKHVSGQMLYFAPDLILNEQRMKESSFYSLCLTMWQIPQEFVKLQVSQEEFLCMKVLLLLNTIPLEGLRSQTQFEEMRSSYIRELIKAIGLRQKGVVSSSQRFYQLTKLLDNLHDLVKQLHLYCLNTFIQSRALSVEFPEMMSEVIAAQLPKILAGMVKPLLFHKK
# UniProt P11712, sequence (P11712 whole entry, looked up): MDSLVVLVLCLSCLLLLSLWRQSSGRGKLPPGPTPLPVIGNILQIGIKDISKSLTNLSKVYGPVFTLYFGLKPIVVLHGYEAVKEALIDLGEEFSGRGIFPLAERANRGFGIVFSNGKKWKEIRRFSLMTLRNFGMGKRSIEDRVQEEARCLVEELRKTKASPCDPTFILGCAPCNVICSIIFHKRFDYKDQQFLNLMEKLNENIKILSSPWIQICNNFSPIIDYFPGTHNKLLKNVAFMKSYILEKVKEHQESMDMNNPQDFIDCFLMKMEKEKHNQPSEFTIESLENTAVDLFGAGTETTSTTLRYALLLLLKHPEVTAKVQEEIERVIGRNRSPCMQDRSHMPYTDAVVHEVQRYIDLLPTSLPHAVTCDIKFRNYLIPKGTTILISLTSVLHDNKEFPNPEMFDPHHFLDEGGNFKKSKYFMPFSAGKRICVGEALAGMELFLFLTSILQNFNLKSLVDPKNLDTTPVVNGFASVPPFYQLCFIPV
SMILES,Potency [1],Potency [2],Potency [3],Potency [4],Potency [5],Potency [6],Potency [7],Potency [8],Potency [9],Potency [10],Potency [11],Potency [12],Potency [13],"ratio activity, negative = MMP loss [2]",Potency [14],"ratio activity, negative = inhibition [15]",Potency [16],Potency [17],Potency [18],Potency [19]
C=CCSCC1Nc2cc(Cl)c(S(N)(=O)=O)cc2S(=O)(=O)N1 (stereo not drawn),inactive,inactive,"inconclusive [rising, partial curve, poor fit]",inactive,inconclusive [cytotoxic],inactive,inactive,inactive,inactive,"inconclusive [inhibitor, single point]","inconclusive [inhibitor, single point]","inconclusive [inhibitor, single point]","inconclusive [inhibitor, partial curve]",,,,,,,
COCCOCCOCCOCCO,,,,inactive,,,,,,"inconclusive [inhibitor, partial curve, poor fit]",,"inconclusive [inhibitor, partial curve, poor fit]",,inconclusive: 7.67%,inactive,inconclusive: -3.36%,inactive,inactive,"inconclusive [cytotoxic, partial curve, poor fit]",inactive

# Reference: PubChem BioAssay (Tox21)
